Results taken from the RNAGym collection of RNA variant scans (doi:10.1093/nar/gkz1192).
The source gives no read counts; variants with many changes may rest on few reads.

B1: CPEB3 Ribozyme (parent)
chain: UAACAGGGGGCCACAGCAGAAGCGUUCACGUCGCAGCCCCUGUCAGAUUCUGGUGAAUCUGCGAAUUCUGCUGUAUAUCUC

Variants of: B1
Experiment: self-cleavage, relative activity (ratio to wild type); higher = more cleavage; in vitro, sequencing
Summary of the method: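 After error-prone PCR and barcoding, CPEB3 ribozyme mutant libraries were transcribed with T7 RNA polymerase at 37°C for 5 hours, then given 15 min with DNase I before an EDTA stop, and they cleaved during both steps. Reverse transcription with template switching preceded Illumina sequencing. Relative activity divides a variant's cleaved/total read fraction by the unmutated ribozyme's. At least 5 reads were required per variant, and three batches were averaged.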

Row | Variant | self-cleavage
1 | U41A G46A C50U A56U U60C U72A U76A | 0.05
2 | U41A G46C A64G | 0.35
3 | U41A G52A U80G | 0.33
4 | U41A G53C A64G A65G | 0.16
5 | U41A G53U A57G U60C | 0.12
6 | U41A G55A G63A U67A | 0.1
7 | U41A G55A U76C | 0.06
8 | U41A U43A A45G | 0.09
9 | U41A U43A U69A | 0.24
10 | U41A U43C A64G U78C | 0.07
11 | U41A U43C G52A | 0.09
12 | U41A U43C U48C | 0.26
13 | U41A U43C U49C A57G U80A | 0.06
14 | U41A U43C U51C U60A U67C A77G | 0.06
15 | U41A U43C U54C U80C | 0.19
16 | U41A U43C U69C | 0.13
17 | U41A U43C U74A | 0.28
18 | U41A U43G U67A | 0.2
19 | U41A U43G U69C | 0.14
20 | U41A U48C A56G | 0.38
21 | U41A U48C U60A | 0.3
22 | U41A U48C U60G | 0.15
23 | U41A U48C U76A | 0.08
24 | U41A U49A U51A U72A | 0.16

Row | Variant | self-cleavage
25 | U41A U49C A56G A64G | 0.11
26 | U41A U49C A64G U76C | 0.13
27 | U41A U49C C71G U72G A75C | 0.09
28 | U41A U49C U58C C62U G70A | 0.1
29 | U41A U49C U69A | 0.18
30 | U41A U49C U72C | 0.26
31 | U41A U49C U76A | 0.45
32 | U41A U51A U54A U60C | 0.08
33 | U41A U51A U60A A75U | 0.34
34 | U41A U51A U60C | 0.2
35 | U41A U51A U72C | 0.26
36 | U41A U51A U80A | 0.31
37 | U41A U51C A56G U78C | 0.17
38 | U41A U51C A64U U69A | 0.09
39 | U41A U51C G61C A77U | 0.08
40 | U41A U51C U54A U74C | 0.4
41 | U41A U51C U72C | 0.25
42 | U41A U51C U78A | 0.17
43 | U41A U51G U78C | 0.13
44 | U41A U54A U69C U76A | 0.11
45 | U41A U54A U74G A75U | 0.44
46 | U41A U54A U80C | 0.34
47 | U41A U54C A56G U72C A77G U80C | 0.12
48 | U41A U54C A77G | 0.25

Row | Variant | self-cleavage
49 | U41A U54C C71G U72C A77U U78C | 0.05
50 | U41A U54C G61A U80A | 0.16
51 | U41A U54G U80C | 0.23
52 | U41A U60A U66C | 0.24
53 | U41A U60C U69G | 0.09
54 | U41A U60C U74C | 0.17
55 | U41A U66C U78A | 0.09
56 | U41A U67A U78A | 0.35
57 | U41A U67C U69A U72C U80A | 0.05
58 | U41A U67C U80C | 0.18
59 | U41A U69C C71U | 0.1
60 | U41A U72A U76C | 0.13
61 | U41A U72C U74A | 0.27
62 | U41A U74A A75G | 0.31
63 | U41A U74A U80C | 0.18
64 | U41A U74G A75U U80C | 0.44
65 | U41A U76C U80A | 0.54
66 | U41A U76C U80C | 0.28
67 | U41C A45C U60C U69C | 0.07
68 | U41C A45G A56G | 0.54
69 | U41C A45G A57G U72C A75G | 0.51
70 | U41C A45G A64G U67C | 0.38
71 | U41C A45G U48C | 0.36
72 | U41C A45G U48C U49G C50G C59A U60A | 0.12

Row | Variant | self-cleavage
73 | U41C A45G U51A | 0.7
74 | U41C A45G U66A | 0.64
75 | U41C A45G U69A U80A | 0.82
76 | U41C A45U A57C | 0.08
77 | U41C A45U C62A U80C | 0.2
78 | U41C A45U G61U A64C U76C A77C | 0.25
79 | U41C A45U U49C U78A | 0.1
80 | U41C A45U U54C A64U | 0.11
81 | U41C A47C U51C A65U | 0.08
82 | U41C A47G G53A U69A | 0.72
83 | U41C A47G U51A | 1.13
84 | U41C A47G U51C C79U U80C | 1.13
85 | U41C A47G U54A U60C U69G | 0.5
86 | U41C A47G U58C U76A A77C | 0.29
87 | U41C A47G U60A | 0.44
88 | U41C A47G U67C | 0.35
89 | U41C A47G U72C | 1.24
90 | U41C A47U A57G | 0.32
91 | U41C A47U A57G A65U | 0.11
92 | U41C A47U A64U U78C | 0.17
93 | U41C A47U U51C | 0.33
94 | U41C A47U U60A U78A | 0.17
95 | U41C A56C U58C U67A | 0.24
96 | U41C A56G A64G | 0.52

Row | Variant | self-cleavage
97 | U41C A56G A77G | 0.87
98 | U41C A56G C81A | 1.17
99 | U41C A56G U60A U74A | 0.18
100 | U41C A56G U60C U80C | 0.49
101 | U41C A56G U80A | 1.13
102 | U41C A56U A57G | 0.3
103 | U41C A56U A57G U72C | 0.53
104 | U41C A56U A64G U80C | 0.77
105 | U41C A56U C68A | 0.36
106 | U41C A56U U66C U80C | 0.28
107 | U41C A56U U80C | 0.92
108 | U41C A57C U60A C81U | 0.16
109 | U41C A57G U58C U66C U72A | 0.2
110 | U41C A57G U67C A77U | 0.3
111 | U41C A57G U67G | 0.31
112 | U41C A57G U69C | 0.49
113 | U41C A57U A75U | 0.82
114 | U41C A57U U66C U76C | 0.43
115 | U41C A57U U78C | 0.81
116 | U41C A64C U66C C71U | 0.54
117 | U41C A64G A77G | 0.69
118 | U41C A64G U72C A75U | 0.73
119 | U41C A64G U80G | 1.05
120 | U41C A64U A75U | 0.54

Row | Variant | self-cleavage
121 | U41C A65G A77G | 0.58
122 | U41C A65G U69C U80C | 0.27
123 | U41C A65G U72A | 0.66
124 | U41C A65U C71U U78A | 0.23
125 | U41C A75G U76C | 1.08
126 | U41C A77G U80C | 1.1
127 | U41C C44A A57G | 0.19
128 | U41C C44U G46A | 0.21
129 | U41C C50A A56G | 0.69
130 | U41C C50A A56G A64C C68U | 0.07
131 | U41C C50A C68U | 0.95
132 | U41C C50G A56G | 0.67
133 | U41C C50G U54C | 0.87
134 | U41C C59A U67C U72G U78A | 0.08
135 | U41C C62A A64G A65G G73A | 0.12
136 | U41C C62A U78C | 0.15
137 | U41C C62G U67C | 0.23
138 | U41C C79A U80C | 1.17
139 | U41C G42C U74C A75U U76C | 0.47
140 | U41C G42U U43C | 0.11
141 | U41C G46A A56G A57G | 0.16
142 | U41C G46U A47G C68A | 0.21
143 | U41C G46U A77U U78C | 0.25
144 | U41C G46U G73A | 1.13

Row | Variant | self-cleavage
145 | U41C G46U U66C U80C | 0.1
146 | U41C G46U U78C | 0.3
147 | U41C G52U U58C A65G U72C | 0.27
148 | U41C G55A U58C | 0.27
149 | U41C G55C U60C | 0.24
150 | U41C G61A A77U | 0.62
151 | U41C G63A C68A | 0.36
152 | U41C G70A U78A | 0.41
153 | U41C G70U U78C U80A | 0.48
154 | U41C U43A A45G U72C U80C | 0.6
155 | U41C U43A A47G U51A U72C | 0.45
156 | U41C U43A G46U A56G | 0.16
157 | U41C U43A G63U | 0.8
158 | U41C U43A U51A U69C | 0.88
159 | U41C U43A U66A U78G | 0.24
160 | U41C U43A U74A | 0.92
161 | U41C U43C A47U U54C | 0.16
162 | U41C U43C A77U | 0.36
163 | U41C U43C U51A | 0.47
164 | U41C U43C U51A A65C U78C | 0.07
165 | U41C U43C U51C A57G U67C U74A | 0.05
166 | U41C U43C U60C | 0.1
167 | U41C U43C U66C | 0.28
